In the supplement of paper PMC4967469:
Lines with a small IC50 respond at low doses; a limit (>, <) means that the fit lies beyond the doses tested. For AUC the same curve is integrated over the 256-fold range of doses and scaled to a fraction; it is 1 without any effect and falls as sensitivity rises. For some of these results: An inferred top dose is not printed in the source and was worked back from the curve model. For some of these results: An entry number marks a drug with two screens in the source, which often give different values.

Key:
Assay in all cases: Viability of human cancer cell lines after 72 h of drug (GDSC screen)
PHA-793887 = compound: CC(C)CC(=O)Nc1n[nH]c2c1CN(C(=O)C1CCN(C)CC1)C2(C)C [PHA-793887]; settings: top dose 10.24 µM
Method: (§1)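 Human cancer cell lines in 384-well plates, medium with 10% serum, drug for 72 h over a 256-fold dose range (nine 2-fold or five 4-fold steps up to the top dose). Adherent lines were fixed and stained with the nucleic acid dye Syto60, suspension lines read with resazurin; signal relative to control wells, capped at 0 and 100%. One two-parameter sigmoid per drug and line, fitted in a mixed model over all curves with the slope shared within a line.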

TPCA-1 = compound: NC(=O)Nc1sc(-c2ccc(F)cc2)cc1C(N)=O [TPCA-1]; settings: top dose 20 µM
Method: as §1

PLX4720 = compound: CCCS(=O)(=O)Nc1ccc(F)c(C(=O)c2c[nH]c3ncc(Cl)cc23)c1F [PLX4720]; settings: top dose 10 µM
Method: as §1

AZD-0530 = compound: CN1CCN(CCOc2cc(OC3CCOCC3)c3c(Nc4c(Cl)ccc5c4OCO5)ncnc3c2)CC1 [AZD-0530]; settings: top dose 2 µM
Method: as §1

Pyrimethamine = compound: CCc1nc(N)nc(N)c1-c1ccc(Cl)cc1 [Pyrimethamine]; settings: top dose 20 µM; top dose inferred
Method: as §1

Y-39983 = compound: C[C@@H](N)c1ccc(C(=O)Nc2ccnc3[nH]ccc23)cc1 [Y-39983]; settings: top dose 20 µM; top dose inferred
Method: as §1

Epothilone B = compound: C/C(=C\c1csc(C)n1)[C@@H]1C[C@@H]2O[C@]2(C)CCC[C@H](C)[C@H](O)[C@@H](C)C(=O)C(C)(C)[C@@H](O)CC(=O)O1 [Epothilone B]; settings: top dose 0.032 µM; top dose inferred
Method: as §1

[1] = screen: GDSC drug entry 1371, top dose inferred

Row | Cell Line | AUC (PHA-793887) | IC50 (PHA-793887) | AUC (TPCA-1) | IC50 (TPCA-1) | AUC (PLX4720; screen: GDSC drug entry 1036) | IC50 (PLX4720; screen: GDSC drug entry 1036) | AUC (PLX4720; [1]) | IC50 (PLX4720; [1]) | AUC (AZD-0530) | IC50 (AZD-0530) | AUC (Pyrimethamine) | IC50 (Pyrimethamine) | AUC (Y-39983) | IC50 (Y-39983) | AUC (Epothilone B) | IC50 (Epothilone B)
1 | KM12 (large intestine, adherent) | 0.862 | 10 µM | 0.733 | 6.15 µM | 0.984 | > 10 µM | 0.984 | > 10 µM | 0.91 | > 2 µM | 0.611 | 2.59 µM | 0.957 | > 20 µM | 0.541 | 0.00262 µM
2 | KM-H2 (Hodgkin lymphoma, suspension) | 0.828 | 5.06 µM | 0.879 | 15.1 µM | 0.97 | > 10 µM | 0.991 | > 10 µM | 0.993 | > 2 µM | 0.844 | 11.2 µM | 0.954 | > 20 µM | 0.691 | 0.00621 µM
3 | KNS-42 (glioma, adherent) | 0.98 | > 10.2 µM | 0.919 | > 20 µM | 0.983 | > 10 µM | 0.982 | > 10 µM | 0.892 | > 2 µM | 0.984 | > 20 µM | 0.964 | > 20 µM | 0.572 | 0.00327 µM
4 | KP-N-YN (neuroblastoma, adherent) | 0.965 | > 10.2 µM | 0.935 | > 20 µM | 0.923 | > 10 µM | 0.956 | > 10 µM | 0.959 | > 2 µM | 0.986 | > 20 µM | 0.928 | > 20 µM | 0.91 | > 0.032 µM
5 | KS-1 (glioma, adherent) | 0.814 | 7.38 µM | 0.823 | 15.8 µM | 0.979 | > 10 µM | 0.976 | > 10 µM | 0.801 | 1.27 µM | 0.914 | > 20 µM | 0.851 | > 20 µM | 0.414 | 0.0011 µM
6 | KU812 (chronic myeloid leukaemia, suspension) | 0.447 | 0.466 µM | 0.045 | < 0.0781 µM | 0.925 | > 10 µM | 0.963 | > 10 µM | 0.935 | > 2 µM | 0.863 | 14.9 µM | 0.316 | 0.404 µM | 0.556 | 0.0028 µM
7 | KURAMOCHI (ovary, adherent) | 0.871 | > 10.2 µM | 0.957 | > 20 µM | 0.984 | > 10 µM | 0.982 | > 10 µM | 0.897 | > 2 µM | 0.899 | > 20 µM | 0.959 | > 20 µM | 0.668 | 0.00637 µM
8 | KY821 (leukaemia, suspension) | 0.753 | 3.04 µM | 0.913 | > 20 µM | 0.992 | > 10 µM | 0.991 | > 10 µM | 0.988 | > 2 µM | 0.984 | > 20 µM | 0.971 | > 20 µM | 0.982 | > 0.032 µM
9 | KYM-1 (rhabdomyosarcoma, adherent) | 0.622 | 1.31 µM | 0.98 | > 20 µM | 0.985 | > 10 µM | 0.987 | > 10 µM | 0.99 | > 2 µM | 0.989 | > 20 µM | 0.99 | > 20 µM | 0.665 | 0.00532 µM
10 | L-428 (Hodgkin lymphoma, suspension) | 0.978 | > 10.2 µM | 0.825 | 10.1 µM | 0.99 | > 10 µM | 0.992 | > 10 µM | 0.992 | > 2 µM | 0.982 | > 20 µM | 0.993 | > 20 µM | 0.907 | > 0.032 µM
11 | L-540 (Hodgkin lymphoma, suspension) | 0.902 | > 10.2 µM | 0.842 | 11.8 µM | 0.99 | > 10 µM | 0.955 | > 10 µM | 0.981 | > 2 µM | 0.858 | 13.7 µM | 0.932 | > 20 µM | 0.776 | 0.0113 µM
12 | L-1236 (Hodgkin lymphoma, suspension) | 0.766 | 3.21 µM | 0.373 | 0.593 µM | 0.938 | > 10 µM | 0.984 | > 10 µM | 0.99 | > 2 µM | 0.951 | > 20 µM | 0.941 | > 20 µM | 0.979 | > 0.032 µM
13 | LAMA-84 (chronic myeloid leukaemia, suspension) | 0.795 | 4.83 µM | 0.634 | 2.94 µM | 0.84 | 7.07 µM | 0.958 | > 10 µM | 0.534 | 0.155 µM | 0.577 | 2.04 µM | 0.987 | > 20 µM | 0.807 | 0.0168 µM
14 | LAN-6 (neuroblastoma, adherent) | 0.961 | > 10.2 µM | 0.93 | > 20 µM | 0.985 | > 10 µM | 0.983 | > 10 µM | 0.971 | > 2 µM | 0.95 | > 20 µM | 0.957 | > 20 µM | 0.949 | > 0.032 µM
15 | LB373-MEL-D (melanoma, adherent) | 0.988 | > 10.2 µM | 0.962 | > 20 µM | 0.99 | > 10 µM | 0.989 | > 10 µM | 0.982 | > 2 µM | 0.989 | > 20 µM | 0.988 | > 20 µM | 0.819 | 0.0177 µM
16 | LB771-HNC (head and neck, adherent) | 0.932 | > 10.2 µM | 0.82 | 15.4 µM | 0.916 | > 10 µM | 0.918 | > 10 µM | 0.936 | > 2 µM | 0.969 | > 20 µM | 0.966 | > 20 µM | 0.697 | 0.00834 µM
